In all, about 33,000 sequences were measured (“E-score (-0.5 to 0.5)”: median about -0.01, highest 2% from about 0.26 on). This is one part of the list.
biological target: Ste12 (UniProt P13574); assay: PBM E-score (8-mer binding enrichment) (E-score (-0.5 to 0.5)); higher = stronger / more preferred TF binding; most listed sequences are background and not binding sites; conditions: protein concentration: 200 nM; construct: GST-DNA-binding domain
Procedure: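 Universal 'all 10-mer' protein binding microarrays (Agilent AMADID 015681) probed with GST-tagged S. cerevisiae TFs (full-length or DBD) made by in vitro transcription/translation (PURExpress), about 100-200 nM. Bound TF was detected with fluorescent anti-GST. Each ungapped 8-mer (which stands for itself and its reverse complement) is scored by the PBM enrichment score (E-score), a modified Wilcoxon-Mann-Whitney statistic from -0.5 to +0.5, computed with the Universal PBM Analysis Suite. Scale: above 0.35 generally sequence-specific binding.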

Sequence	PBM E-score
ATTCGCGG	0.0576
ACATCTCC	0.0333
ATGCTCAC	-0.0518
CCTTCGCC	-0.0682
CTAATTAA	0.117
GGACGGCC	-0.177
AACAATAT	0.236
AGGGGAGC	-0.123
CACCGGAG	0.0178
ACAAACCC	0.0905
CGGTATAG	0.0412
CATCCTTC	0.0076
TACGCCCA	-0.0526
AAACAATT	0.112
AAACGGTG	0.133
CTTAATGC	-0.049
GGTAACAA	0.264
CATACTAC	0.0392
AGAAACGG	0.0926
GCTGATTA	0.0336
GACGCGTA	-0.0025
AGTACACG	-0.0744
CTGTTCCC	-0.118
CGGGGATC	-0.00199
GAAATCAC	0.0714

Sequence	PBM E-score
AAAATTCT	0.114
AGTCGCCG	-0.0311
AAGTTGTC	0.107
CAGCTCGA	-0.00483
GGATGCTA	-0.109
ATGTCCCA	-0.176
ATTCCAAG	-0.0778
CCGCTACC	0.028
AGACACTA	0.0233
ACCCAAAT	0.172
GATAGGGA	-0.197
AATCATAA	0.0803
TAAGTGCA	-0.104
ATGTGGTC	-0.0153
ACTCCTGA	0.0449
AACCACGT	-0.0693
GATAGATC	-0.194
CCAGTTGA	-0.253
GAGAAAGC	0.0134
CACTCGGA	0.0339
ACCCCGCT	0.203
TACCTGCA	-0.169
ATAGGAAA	0.0645
AGTCCTTC	-0.225
GCCAAACC	-0.00579

Sequence	PBM E-score
ATCCTATC	-0.0507
GTGAGACA	0.256
AGTCAGTA	0.0823
ATAATTTC	-0.0332
GCTCCTCA	-0.226
TATACTCA	-0.00467
ACGAACCC	-0.0779
CCGAAGAA	-0.026
GAGCTAAC	-0.0165
AGTCAGTC	-0.202
AATTCCGG	0.00194
ACCCCAAT	-0.163
GCCGGCCA	-0.0663
ACTCAACC	-0.0105
CAAAGCAA	0.24
CGAGCGGC	-0.00175
CGATGCCG	-0.12
CCCATCCA	0.0595
AGAACGCA	-0.153
TCGATCAA	-0.101
TGAGCAAA	0.0657
AGAATTGC	0.102
CAAGCTGC	-0.0394
CCAAGGAC	-0.175
CAATAACA	0.0401

Sequence	PBM E-score
AGTGCTAC	-0.32
CGTGCTTA	0.0934
ACTATTCT	0.0411
GCCATCCC	-0.0503
CCTACATC	-0.0386
GCTCATCA	-0.0615
ACAGACAC	-0.0621
ACACCGAT	-0.198
CTCGCGTC	-0.0265
CAATATAC	0.116
AGTTGACA	-0.0152
ACCGCATA	0.102
CCGGCGTC	0.041
CCCTAGGA	-0.0792
AGGTACAT	-0.118
CTCGTATC	-0.0255
CGGTTTCC	0.1
CAACAGTC	-0.144
AATCACGA	-0.105
GAATTATC	0.0425
CACAAAAC	0.23
CCCCATCC	0.0406
TTAGATAA	0.065
CGTGCATA	-0.189
ATAAGGTG	0.038

Sequence	PBM E-score
GACATCGC	-0.126
ATGGTCCA	-0.157
TCGGACAA	0.134
ATGTCCGC	-0.181
CTGTCTGA	0.0429
TCTGTCAA	0.0339
AACGGAGT	0.114
ACGTAAGC	-0.176
CGAGGTGC	-0.0816
GCTAGCTA	-0.113
ATCTCGTA	-0.125
GGTTAGAA	-0.145
TACTAGAA	0.196
CGTAACGC	0.248
AGGTCAAG	-0.0303
CCCGCTTA	-0.0721
GCAGCTCC	-0.209
CAGCCATG	-0.0258
AGCAAATA	0.085
GGCTCTAA	0.157
CAAGGGTC	-0.167
AAGCTATA	0.0484
GTTGCGTA	0.256
CGAAATAC	0.0956
AAAGTTAT	0.185

Sequence	PBM E-score
CCAGATAG	-0.0151
CGGTATTC	0.156
GGGTTGCA	-0.011
AAGATTGC	-0.0392
CTGCGTGA	-0.136
GGTATGAA	0.14
GAGCCCAA	-0.164
CATGCACC	-0.128
CTCGAGTC	-0.0851
ATTATATC	0.166
ATGGAGAC	-0.014
TAATCTGA	0.0394
ACGCTTTA	-0.162
CGATTTCC	0.0567
CAGGTCAC	-0.219
CTATCTGA	-0.0546
GCCGTCGC	-0.0253
GGCAGATA	-0.0829
CCCACCGA	0.173
ATCGAAGG	-0.00355
GTGTGAAA	0.307
GTAGTACA	-0.0577
ATCACGAT	-0.108
ACGCTAAG	-0.0711
GGACAGGA	-0.152

Sequence	PBM E-score
CATCCACA	-0.0354
CGACCATC	-0.0834
AACTTGAG	-0.123
ATGTGCTA	0.0547
GTCCCACA	-0.0414
AGTAACTC	-0.206
TCAGATCA	-0.14
GTACGAGA	0.055
ACATGACC	0.0344
AGTAAGAC	-0.0577
GGTGAAAC	0.463
ATTTCGAA	0.253
CTTGTCCC	0.0279
GAAACTCC	0.22
CTTTTATC	0.147
AGTGTGGG	-0.0494
AGCAAAGG	0.114
GGCGATTA	-0.131
AATGCTAA	0.0566
CAGGCGAC	-0.072
ACGCAGAG	-0.109
GGTTAAGA	0.0651
AACATACT	0.0629
TAACACCA	0.188
CATAAGCA	0.0276

Sequence	PBM E-score
ACATGTTA	0.121
CTAGTATC	0.0819
AGCCGAGG	0.00737
AATTTGAA	0.212
GATCTAGC	-0.165
CCGATAAG	-0.0182
CTATATGC	-0.0876
CGACGCTA	0.00793
AGGTCTAT	0.00791
AGATCAAT	-0.0352
TCTCGAGA	0.22
ACCGCAGA	-0.0299
GCTTATAA	0.0238
ATAGTGGC	-0.0977
ATAGGGGG	-0.298
CCCAAAAG	0.0115
AAGGCTGG	-0.296
CTCACGAC	-0.039
AGTGGAGA	-0.0286
AGTCTGGC	-0.178
CGAACATC	-0.00548
GTCCCAGA	-0.0568
ACGACAGT	-0.147
AATACTCA	0.0844
TACGCGCA	0.0338

Sequence	PBM E-score
CCCGTGCA	-0.115
CCTCAGAG	-0.153
GATTGAAA	0.243
AGCCTTAG	-0.132
AGGTGTGC	-0.164
ACATTATG	0.0347
TAAAAAGA	0.248
ACGTGCGC	0.0385
ATCCGGCC	0.145
CTTGACAC	0.106
GCCCTATA	-0.124
CATGCTGA	0.053
CAACGCCA	-0.00117
TTCCCAAA	0.218
ACTTCAGG	-0.0766
AGAACATA	0.119
ATACGAGC	-0.0348
CATACTGG	-0.0627
GTTCTGTA	-0.0098
AGCCGCCG	-0.024
ATACTGAA	-0.0326
AACACCTG	-0.0339
AAGGAACG	0.0516
ATCATACG	-0.0371
GAAGCATC	-0.0946

Sequence	PBM E-score
CCAATGGA	-0.166
CAGCTGGC	-0.0259
CGTTGACC	-0.118
CTTAACGC	-0.077
ACCCCAGG	-0.259
CTGGAACC	-0.22
AACCAGCT	-0.00605
AGTCAGAT	-0.0683
CGTGATTA	-0.079
GAGTTAAC	-0.0983
CCAGGCGC	-0.157
AGGCTATG	-0.138
GAACATCA	-0.0739
GCTCGTCC	-0.0971
ATGTGTAA	-0.0557
CAGTGCGC	-0.183
ACGACGAC	-0.142
CGACTAGA	0.011
CCAGGCTA	-0.0827
ACTCACCG	0.0174
CCACGTCG	-0.0119
AGAATCAC	-0.209
GCTTACTA	0.00559
ACAACGGG	0.00389
AATCCATA	0.0365

Sequence	PBM E-score
CGCGATAC	0.0123
CGGAATCC	-0.0349
CTCGTGCA	-0.0913
GACACAAA	0.155
CCTTTCTA	0.102
CGTAGGAC	-0.246
AGGCGAGA	-0.195
AGAATGAG	-0.0488
ACAAGAAA	0.28
ACCAGGAC	0.0194
GGAACAAA	0.229
GAAAATTA	0.206
GCGACTCA	-0.131
TCACGTGA	-0.0719
GTCCCAAA	0.077
CTAACTAC	-0.0421
CAGGCTCG	0.00069
CTTGAGCA	-0.0692
ACGGCAAT	0.0277
CATTTGAC	0.0579
CCGACGGA	0.0201
GTAGGACA	-0.0332
GAGCGGGC	-0.0749
AGGATGAA	0.128
ATGGGCAC	0.162

Sequence	PBM E-score
AGTATAAA	0.228
CGTCTGTA	-0.0457
GCGCTCAC	-0.123
ACAATGGG	0.07
CCCGCGTA	0.0398
CTCGGTAC	-0.0909
TACCGGAA	-0.0157
CCCGACAA	0.178
AGTAGAGA	-0.0874
CTAGGACC	-0.251
CTGCACGC	-0.179
AAGCCTAG	-0.272
ACAGATCG	-0.121
AGCTGCGG	-0.101
GCGCTATA	0.0543
CACGTTAA	0.109
TGAGACCA	0.0123
ATCTGTTG	-0.0026
GAAACCCA	0.246
CTTAACAA	0.194
AGTCCCGG	-0.116
AAAGCTCA	-0.172
AGACAATC	0.0818
CCGGGACG	-0.0294
CATCTCCA	0.00191

Sequence	PBM E-score
ATTGACTG	0.0633
TTATACAA	0.0165
ATTTTCGG	0.164
ACGAACAT	0.044
CGCTGTAA	0.0745
ACACATTG	0.212
AGGGCCAG	-0.0826
TGCTTCCA	-0.204
ACTGCAGT	-0.207
AGAATTCA	0.162
CTTCTGGA	-0.00383
GGCCTCCC	-0.0507
ACTCCCAT	0.0994
CATCCGAC	0.0518
ACAGGATG	0.0588
ACAGGAGA	0.206
ACTCCCAG	0.092
ATCAGCCG	-0.109
ACATCCGC	0.0592
TGGGAGAA	-0.106
CAATAGCG	0.0681
CTATTAAC	-0.0267
AGCCCTAC	-0.109
GTGTTGCA	0.159
GTCATCTA	0.079

Sequence	PBM E-score
GACATGCC	-0.138
AGAAATCT	0.118
GGGATTAA	0.145
ATAAGGAA	0.0633
AGCTCCAT	-0.0858
GGTATATA	0.159
ACACTATA	0.198
CATGAGGC	-0.141
GTCTATAA	0.113
TAAACCCA	0.173
CTTATCGA	0.117
ATCAACAG	0.16
AGATAGAA	-0.0615
ACAGGGAC	-0.169
CTCCGTGC	-0.128
AAGAGCGT	0.0448
ATTCACAC	0.14
GCTACGCA	0.0244
GCTTCTGA	0.145
